In PubChem BioAssay AID504333 (National Center for Advancing Translational Sciences (NCATS), 2011):
Hit rate of the full screen: of about 360,000 compounds, about 16,000 (4.4%) were called active. The inconclusive results got no clear call from the source; some entries with a clear call stand among them for comparison. The call rests on the fitted dose curve; in most records, active means well fitted inhibition curve with a large enough effect; inconclusive means small, poorly fitted or top-dose-only effect; inactive means no such curve, though single readings can be large or run the other way. Potencies beside an inconclusive call are fits to weak or partial responses and may not hold up. Some structures have more than one record in an assay (separate samples or runs), and their calls can disagree.

biological target: Bromodomain adjacent to zinc finger domain protein 2B (Homo sapiens) (UniProt Q9UIF8); test: qHTS Assay for Inhibitors of BAZ2B; details: AlphaScreen BAZ2B-H3K14Ac peptide displacement; series mostly up to 114 µM; further: nearly all actives have a fitted effect of over 60% in size
Outline: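 Complex of BAZ2B and biotin-H3K14Ac (50 nM apiece) forms over 30 min at RT, then faces library compounds up to 110 uM for another 30 min; AlphaScreen beads added, 20 min dark incubation, luminescence read.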
Potency means the concentration at half of the fitted maximal effect; tags describe the fitted curve by direction and shape.

UniProt Q9UIF8, sequence (Q9UIF8 whole entry, looked up, the tested form may be a part): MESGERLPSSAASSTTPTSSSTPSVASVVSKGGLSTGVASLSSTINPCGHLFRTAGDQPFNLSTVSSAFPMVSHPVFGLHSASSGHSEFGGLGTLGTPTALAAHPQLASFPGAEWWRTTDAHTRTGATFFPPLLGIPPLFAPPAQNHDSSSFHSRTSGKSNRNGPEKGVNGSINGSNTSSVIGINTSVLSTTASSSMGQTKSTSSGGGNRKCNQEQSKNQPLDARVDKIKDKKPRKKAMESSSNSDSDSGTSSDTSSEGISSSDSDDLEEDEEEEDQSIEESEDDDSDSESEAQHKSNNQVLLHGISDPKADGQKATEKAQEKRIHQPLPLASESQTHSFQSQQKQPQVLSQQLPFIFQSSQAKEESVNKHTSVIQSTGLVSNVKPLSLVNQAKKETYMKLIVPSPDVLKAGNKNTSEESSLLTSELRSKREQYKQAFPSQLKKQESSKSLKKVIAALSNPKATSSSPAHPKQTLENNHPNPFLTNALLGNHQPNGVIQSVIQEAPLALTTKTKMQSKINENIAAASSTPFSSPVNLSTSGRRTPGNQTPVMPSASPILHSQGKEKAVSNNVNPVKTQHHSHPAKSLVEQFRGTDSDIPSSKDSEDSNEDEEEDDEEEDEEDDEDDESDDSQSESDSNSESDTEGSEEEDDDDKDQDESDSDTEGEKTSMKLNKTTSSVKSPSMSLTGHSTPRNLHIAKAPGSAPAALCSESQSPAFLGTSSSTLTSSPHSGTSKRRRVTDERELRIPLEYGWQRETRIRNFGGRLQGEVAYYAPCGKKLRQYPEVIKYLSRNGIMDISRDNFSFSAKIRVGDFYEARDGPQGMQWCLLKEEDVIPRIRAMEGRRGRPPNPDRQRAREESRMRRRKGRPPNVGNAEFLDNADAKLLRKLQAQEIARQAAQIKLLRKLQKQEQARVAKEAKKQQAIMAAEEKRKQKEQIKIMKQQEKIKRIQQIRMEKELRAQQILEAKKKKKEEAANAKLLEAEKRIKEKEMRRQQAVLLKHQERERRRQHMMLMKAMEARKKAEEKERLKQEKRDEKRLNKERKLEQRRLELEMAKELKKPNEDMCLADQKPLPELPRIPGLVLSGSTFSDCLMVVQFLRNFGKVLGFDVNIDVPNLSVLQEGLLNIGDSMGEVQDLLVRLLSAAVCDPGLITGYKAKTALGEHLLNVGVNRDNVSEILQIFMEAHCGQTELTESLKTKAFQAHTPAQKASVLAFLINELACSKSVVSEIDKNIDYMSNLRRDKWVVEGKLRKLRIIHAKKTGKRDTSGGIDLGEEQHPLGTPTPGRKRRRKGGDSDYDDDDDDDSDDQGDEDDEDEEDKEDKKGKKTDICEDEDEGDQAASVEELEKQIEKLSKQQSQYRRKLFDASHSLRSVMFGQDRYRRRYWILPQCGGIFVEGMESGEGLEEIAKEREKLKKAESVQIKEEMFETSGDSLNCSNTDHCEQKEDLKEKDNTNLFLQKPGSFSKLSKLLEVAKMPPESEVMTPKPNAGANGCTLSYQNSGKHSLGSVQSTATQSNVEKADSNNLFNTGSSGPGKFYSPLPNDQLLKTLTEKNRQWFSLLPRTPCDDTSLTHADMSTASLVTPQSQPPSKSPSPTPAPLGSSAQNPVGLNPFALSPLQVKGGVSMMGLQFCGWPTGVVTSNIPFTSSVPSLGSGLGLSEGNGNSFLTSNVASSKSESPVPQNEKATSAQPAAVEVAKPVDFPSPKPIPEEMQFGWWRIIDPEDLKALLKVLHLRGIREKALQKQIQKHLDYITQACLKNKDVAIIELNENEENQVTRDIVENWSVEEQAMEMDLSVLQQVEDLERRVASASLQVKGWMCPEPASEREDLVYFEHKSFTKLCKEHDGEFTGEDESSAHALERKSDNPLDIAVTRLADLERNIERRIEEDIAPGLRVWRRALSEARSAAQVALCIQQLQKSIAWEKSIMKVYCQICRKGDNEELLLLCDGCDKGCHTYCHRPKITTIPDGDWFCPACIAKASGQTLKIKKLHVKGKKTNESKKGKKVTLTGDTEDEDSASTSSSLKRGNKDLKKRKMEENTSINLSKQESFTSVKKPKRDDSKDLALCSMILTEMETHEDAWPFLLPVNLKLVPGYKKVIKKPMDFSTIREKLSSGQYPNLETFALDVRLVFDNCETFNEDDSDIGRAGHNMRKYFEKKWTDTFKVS

Compound	Potency
CCCc1[nH][nH]c(=O)c1C(c1cccc(Cl)c1)C(C#N)C#N (centres undefined)	inconclusive: 8.91 µM [inhibitor, partial curve, poor fit]
COC(=O)CSc1nnc(-c2sc3cc(OC)ccc3c2Cl)n1C	inactive
CCOc1ccc2c(c1)C(c1cccs1)=NNC(c1cccnc1)=N2	active: 70.8 µM
COc1ccc(Nc2nnc(SCc3cn4c(C)cccc4n3)s2)cc1	inconclusive: 50.1 µM [inhibitor, partial curve]
COc1ccc(S(=O)(=O)N(CCC(=O)O)Cc2ccccc2)cc1	inactive
COc1ccc(C(=O)N2CCCC(Nc3ccc(C)c(C)c3)C2)c(OC)n1 (centres undefined)	inconclusive: 70.8 µM [inhibitor, single point]
CC(C)OCCOc1ccc2oc(-c3ccco3)cc(=O)c2c1	active: 56.2 µM
O=C(CN1CCN(c2ccc(F)cc2)CC1)N1CCC(Cc2ccccc2)CC1	active: 35.5 µM
CCc1ccc(/C=N/Nc2nn[nH]n2)cc1	inconclusive: 89.1 µM [inhibitor, single point]
Cc1nn(CCCC(=O)NCCc2ccc(Cl)cc2)c(=O)c2c1sc1ccccc12	active: 25.1 µM
COc1ccc2c(c1)c(=O)cc(C)n2CC(=O)NCc1ccco1	inconclusive: 50.1 µM [inhibitor, partial curve]
COc1ccc(Cn2c(C(=O)O)c(CNCCc3ccco3)c3ccc(C)cc32)cc1	inconclusive: 56.2 µM [inhibitor, partial curve]
Cc1ccc(C(=O)NCC(c2ccc3c(c2)OCO3)N2CCN(C)CC2)cc1C (centres undefined)	inactive
NC(=S)N/N=C/c1ccccc1O	active: 35.5 µM
Cc1ccc(-c2csc(NC(=O)c3cccc(S(=O)(=O)N4CCN(C)CC4)c3)n2)cc1	inactive
O=C1C2C3C=CC(C2C(=O)N1CCCO)C1C2C(=O)N(CCCO)C(=O)C2C31 (centres undefined)	inconclusive: 89.1 µM [inhibitor, single point]
C=CCOC(=O)Nc1c(C(=O)OC)[nH]c2ccccc12	inactive
COc1cc(C(=O)c2ccccc2Cl)c([N+](=O)[O-])cc1OC	inconclusive: 35.5 µM [inhibitor, partial curve]
CC(C)NC(=S)N/N=C1\CCCc2ccccc21	inconclusive: 79.4 µM [inhibitor, partial curve]
Cc1ccc(C(C)C)c(OCCCCN2CCNCC2)c1	active: 28.2 µM
CC1=C(C(=O)Nc2ccccc2)C(c2ccc(C(=O)O)cc2)n2ncnc2N1 (centres undefined)	inactive
Cc1sc2nc(C3CC3)nc(N3CCN(C(=O)c4ccc(Cl)cc4)CC3)c2c1C	inconclusive: 89.1 µM [inhibitor, single point]
O=C1Nc2ccccc2C1C(C[N+](=O)[O-])c1ccccn1 (centres undefined)	inconclusive: 89.1 µM [inhibitor, single point]
CCN1CCC2(CC1)N=C(c1ccc(F)cc1)C(=S)N2C(=O)c1ccc(C)cc1	active: 44.7 µM
COc1cc(NC(=O)NNC(=O)c2cc3occc3n2C)cc(OC)c1OC	inconclusive: 56.2 µM [inhibitor, partial curve, poor fit]

Compound	Potency
CCCC(c1nnnn1Cc1cccs1)N1CCN(C)CC1 (centres undefined)	inconclusive: 89.1 µM [inhibitor, single point]
Cc1cccn2c(=O)c3cc(C(=O)NCc4ccco4)c(=N)n(C(C)C)c3nc12	inactive
Cc1ccn2cc(-c3ccc(NC(=O)c4ccco4)cc3)nc2c1	inactive
CCOc1ccc(NC(=O)c2cnn(-c3ccc(C)c(C)c3)c2C2CCN(C(=O)OC(C)(C)C)CC2)cc1	inactive
O=C1C(=O)N(Cc2cccnc2)C(c2ccccn2)/C1=C(/O)c1ccc(Br)cc1 (centres undefined)	inconclusive: 89.1 µM [inhibitor, single point]
CCOC(=O)/C(C#N)=C/c1c(N2CCN(c3ccc(OC)cc3)CC2)nc2c(C)cccn2c1=O	active: 8.91 µM
Nc1c2nc(-c3ccccc3)[nH]c(=O)c2nc(=O)n1-c1ccccc1	inconclusive: 79.4 µM [inhibitor, single point]
COc1ccccc1NS(=O)(=O)c1cc(C(=O)NCCC(C)C)ccc1F	inactive
COc1ccc(NC(=O)CN2CCN(CC(=O)Nc3ccc(OC)c(OC)c3)CC2)cc1	inactive
c1ccc(-c2nc3nc4ccccc4nc3n2CC2CCCO2)cc1 (centres undefined)	inactive
CCc1c(C)c(C#N)c2[nH]c3ccccc3n2c1=S	active: 35.5 µM
CCOC(=O)c1c(/C=N/Nc2ccccc2)c2sc(C)cc2n1C	inconclusive: 89.1 µM [inhibitor, single point]
COc1ccc(NC(=O)c2ccc(COc3ccccc3Br)o2)cc1OC	inconclusive: 70.8 µM [inhibitor, single point]
CC(C)OC(=O)CSc1nnc(-c2cnccn2)n1Cc1ccco1	inconclusive: 100 µM [inhibitor, single point]
CCn1cnc2cc(NCc3ccc(Cl)cc3)ccc21	inconclusive: 44.7 µM [inhibitor, partial curve]
COc1ccccc1OCCSc1nc2ccc([N+](=O)[O-])cc2s1	inconclusive: 25.1 µM [inhibitor, full curve]
COc1cccc(C(=O)N(Cc2cccnc2)c2nc3c(OC)ccc(C)c3s2)c1OC	inconclusive: 35.5 µM [inhibitor, partial curve]
Cc1c(CCOC(=O)c2cc([N+](=O)[O-])cc([N+](=O)[O-])c2)sc[n+]1CC(=O)c1ccc(Br)cc1	active: 50.1 µM
Cc1c(Cl)cccc1NC(=O)CCS(=O)(=O)c1ccc2c(c1)oc(=O)n2C	inactive
O=C(Nc1ccc(NC(=O)c2ccncc2)cc1)c1ccncc1	inactive
CC[n+]1c(/C=C(\C)SC)sc2ccccc21	active: 79.4 µM
CN(C)CCn1c(=O)n(Cc2ccco2)c(=O)c2c3c(sc21)CCCCC3	inconclusive: 79.4 µM [inhibitor, single point]
COc1ccc(OC(=O)c2cccc([N+](=O)[O-])c2)c(C(=O)/C=C/c2cccs2)c1	inconclusive: 31.6 µM [inhibitor, single point]
O=C(CN1C(=O)/C(=C/c2cccc(Br)c2)SC1=S)NCCCN1CCOCC1	inconclusive: 50.1 µM [inhibitor, partial curve]
O=C(Nc1ccncc1)c1cccs1	inconclusive: 63.1 µM [inhibitor, single point]

Compound	Potency
C/C(CCC(C)C)=N\NC(=S)NCc1ccccc1	inconclusive: 35.5 µM [inhibitor, partial curve]
Cc1ccccc1N(C)S(=O)(=O)c1nnc(NC(=O)c2ccccc2F)s1	active: 14.1 µM
NC(=O)C1CCN(c2ncnc3c2c(-c2ccccc2)cn3-c2ccccc2)CC1	inconclusive: 50.1 µM [inhibitor, partial curve]
CCc1ccc(NC2=NCC(c3ccccc3)S2)cc1 (centres undefined)	inactive
NC(=S)Nc1cc(Cl)cc(Cl)c1	inactive
O=C(NCCCNCCCNC(=O)c1ccc(/C=N/O)nc1)c1ccc(/C=N/O)nc1	active: 1.41 µM
O=C(O)c1ccc(S(=O)(=O)c2ccc3c(c2)C(=O)N(NC(=O)c2ccccc2)C3=O)cc1	inactive
C/C(=C\C(=O)c1ccc(C)cc1)Nc1cccc(O)c1	active: 50.1 µM
CCCC[C@]12Cc3cc(C#N)ccc3C(O1)c1c(cc(C)n(-c3ccccc3)c1=O)O2	inconclusive: 14.1 µM [inhibitor, single point]
Cc1cc(C(F)(F)F)n2[nH]c(=O)c(N=Nc3ccccc3)c2n1	inactive
COc1ccc(S(=O)(=O)NCC(c2ccc(N(C)C)cc2)N2CCCC2)cc1 (centres undefined)	inconclusive: 39.8 µM [inhibitor, partial curve]
C#CCN1C(=O)S/C(=C\c2ccc(-c3ccc(C(=O)O)cc3C)o2)C1=O	active: 50.1 µM
CCCc1nn(-c2ccccc2)c2c1C(c1cccs1)C(C#N)=C(N)O2 (centres undefined)	active: 39.8 µM
COc1cccc(CNC(=O)c2oc3c(c2C)-c2nn(Cc4cccc(Cl)c4)cc2CC3)c1	inconclusive: 79.4 µM [inhibitor, partial curve]
COc1ccc(NC(=O)C2=CC(c3ccc4c(c3)OCO4)=NS(=O)(=O)N2C)cc1	inconclusive: 56.2 µM [inhibitor, partial curve]
CCc1nnc(SCC(=O)Nc2ccc(C(C)=O)cc2)nc1CC	active: 56.2 µM
CN(C)C(=O)c1cc([N+](=O)[O-])cc([N+](=O)[O-])c1N(C)C	inconclusive: 89.1 µM [inhibitor, single point]
Oc1ccc(/C=N/N=C/c2ccc(O)c(O)c2)cc1O	active: 10 µM
COc1ccc(-c2ccc(/C=N/N3C(=O)C4C5C=CC(C6CC56)C4C3=O)o2)c([N+](=O)[O-])c1 (centres undefined)	inconclusive: 44.7 µM [inhibitor, partial curve]
Fc1ccc(-n2cc(-c3ccccc3)c3c(NCCc4ccccc4)ncnc32)cc1	inconclusive: 17.8 µM [inhibitor, single point]
COc1ccc(C)cc1NC(=O)C1COc2ccccc2C1 (centres undefined)	inactive
COc1cc(S(=O)(=O)N2CCOCC2)ccc1NC(=O)COC(=O)c1ccccn1	inconclusive: 89.1 µM [inhibitor, single point]
COc1ccc(OC)c(N/C(C)=C/C(=O)c2ccc(Br)cc2)c1	inconclusive: 39.8 µM [inhibitor, partial curve]
COc1cccc(N2CCN(C(=O)CN(c3cc(C)cc(C)c3)S(=O)(=O)c3c(C)noc3C)CC2)c1	inconclusive: 25.1 µM [inhibitor, full curve]
